# The supplement of paper PMC9334596
# Values joined by “and” are separate entries in the source; they are usually repeats but may differ in a detail not shown here. Equal values may be shown once. Over roughly 5,300 compounds, “PER2::LUC luminescence relative to vehicle control” has its median near 0.96; the highest 2% begin near 1.3. The list shows a part of the results.
# Tested on: mPer2Luc MEF
# Test: PER2::LUC luminescence relative to vehicle control (fold of vehicle); higher = higher PER2::LUC reporter signal
# Conditions: 10 µM
# Procedure, shortened: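 The value is PER2::LUC luminescence expressed as fold of vehicle control. Mouse embryonic fibroblasts carrying the mPer2Luc reporter were seeded at ~3000 cells per well in 384-well plates and grown in DMEM with 10% FBS at 37 °C and 5% CO2. Compounds from commercial libraries were added at 10 μM 48 h after seeding, and luminescence was read with the ONE-Glo luciferase assay system 24 h and 30 h after treatment, followed by an alamarBlue viability assay.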
Compound,PER2::LUC luminescence (time after treatment 24 h),PER2::LUC luminescence (time after treatment 30 h)
Cc1ncc([N+](=O)[O-])n1CC(O)CCl (configuration not stated),1.03,0.7
COc1cc(OC)c2c(OC)c(-c3ccc4c(c3)OCO4)c(=O)oc2c1,1.02,1.21
CN1C(C(=O)Nc2ccccn2)=C(O)c2sccc2S1(=O)=O,1.16,0.971
N#Cc1ccc2[nH]cc(CCCCN3CCN(c4ccc5oc(C(N)=O)cc5c4)CC3)c2c1,0.548 and 0.415,0.682 and 0.756
CCCOc1ccc2c(c1)CC[C@@H]1[C@@H]2CC[C@]2(C)[C@@H](OC)CC[C@@H]12,0.458,0.736
Cc1cccc(/C=N/Nc2cc(N3CCOCC3)n3nc(-c4ccncc4)cc3n2)c1,0.081,0.064
COc1ccccc1C(=O)Nc1cccc(NC(=O)c2cccc(C)c2)c1,0.917,0.985
FC(F)(F)c1ccc(CNc2ccc(Cc3c[nH]c4ncc(Cl)cc34)cn2)cn1,0.702,0.701
O=C(Nc1ccccc1)c1ccccc1O,1.27,1.08
C=C1C(=O)[C@]23[C@H](CC[C@@H]1[C@@H]2O)[C@]12CO[C@@]3(O)[C@H](O)[C@H]1C(C)(C)CC[C@@H]2O,0.98,1.02
COC(=O)C[C@H]1C(C)(C)C(=O)[C@@H]2CC3=C(CC[C@]4(C)C3=CC(=O)O[C@H]4c3ccoc3)[C@@]1(C)C2=O,0.963,1.02
CN(C)[C@@H]1c2onc(OCc3ccccc3)c2C(=O)[C@@]2(O[Si](C)(C)C(C)(C)C)C(=O)C=CC[C@@H]12,0.723,0.75
CC(=O)c1cc([N+](=O)[O-])c(Sc2cccc(Cl)c2Cl)s1,1,0.969
COc1ccc2c(c1OC)OC[C@@H](c1ccc(OC)c(OC)c1OC)C2,1.06,0.944
Cn1c(=O)c2[nH]cnc2n(C)c1=O,1.05 and 0.927,1.04 and 0.953 and 0.859
CS(=O)(=O)c1ccc(C2=C(c3ccccc3)C(=O)OC2)cc1,0.844,0.925
C[C@H](NC(c1cccc2nc(O)c(O)nc12)P(=O)(O)O)c1ccc(Br)cc1 (some centres not stated),1.03,0.937
Oc1ccc(Cl)c2c1CCC2,0.846,1.05
Cc1[nH]c(=O)c(C#N)cc1-c1ccncc1,1.2,1.11

Compound,PER2::LUC luminescence (time after treatment 24 h),PER2::LUC luminescence (time after treatment 30 h)
CC(C)[C@H](CO)Nc1nc(Nc2cccc(Cl)c2)c2ncn(C(C)C)c2n1,0.304,0.37
C#C[C@]1(O)CC[C@H]2[C@@H]3CCc4cc(OC5CCCC5)ccc4[C@H]3CC[C@@]21C,1.19,0.911
CN(C)CCC=C1c2ccccc2CCc2ccccc21,0.836,0.626
Cc1ccnc2c1NC(=O)c1cccnc1N2C1CC1,0.981 and 0.667,0.971 and 1.02
CN(CCc1ccc(Cl)c(Cl)c1)CCN1CCCC1,0.943,0.866
COc1cc(Cc2cnc(N)nc2N)cc(OC)c1OC,1.05,1.09
NC(=O)C(=O)O,1.12,1.11
CN(C(=O)c1ccc(F)cc1C(F)(F)F)C1CCN(c2nnc(-c3ccnn3C)c3ccccc23)CC1,1.07,0.916
FC(F)(F)c1cc(COC2CCCNC2c2ccccc2)cc(C(F)(F)F)c1 (configuration not stated),0.914,0.875
COc1cc2c(cc1OC)CN(CCc1ccc(NC(=O)c3cc(OC)c(OC)cc3NC(=O)c3cnc4ccccc4c3)cc1)CC2,0.998 and 0.571,1.06 and 0.586
C=C1C[C@@]23CC[C@H]4[C@@](C)(CCC[C@@]4(C)C(=O)O[C@@H]4O[C@H](CO)[C@@H](O)[C@H](O)[C@H]4O)[C@@H]2CC[C@]1(O[C@@H]1O[C@H](CO)[C@@H](O)[C@H](O)[C@H]1O[C@@H]1O[C@H](CO)[C@@H](O)[C@H](O)[C@H]1O)C3,1.13,0.945
CN(C)c1cc2c(Nc3ccc4c(cnn4Cc4ccccc4)c3)ncnc2cn1,0.858,0.96
CCN(CC)CCOC(=O)C(c1ccccc1)C1CCCCC1 (configuration not stated),0.692,0.864
COCC1=C(C(=O)OC(C)OC(=O)OC(C)C)N2C(=O)[C@@H](NC(=O)/C(=N\OC)c3csc(N)n3)[C@H]2SC1 (some centres not stated),1.03,1.06
Cc1cc(N2CCCCC2)nc2ccccc12,1.03,1.08
NS(=O)(=O)c1cccc2c1c([N+](=O)[O-])cc1nc(O)c(O)nc12,1.12,1.19
N#CC(=C(/N)Sc1ccccc1N)/C(C#N)=C(/N)Sc1ccccc1N,1.26,1.18
O=C1NCCSc2c1sc1ccc(O)cc21,1.01,0.824
COc1cc2c(cc1OC)C(=O)C(CC1CCN(Cc3ccccc3)CC1)C2 (configuration not stated),0.714 and 0.831,0.963 and 0.819

Compound,PER2::LUC luminescence (time after treatment 24 h),PER2::LUC luminescence (time after treatment 30 h)
CCCCC(CC)CN1CN(CC(CC)CCCC)CC(C)(N)C1 (configuration not stated),0.916,1.11
NC(N)=NCc1cccc(I)c1,0.952,1.2
CC(C)CCCC(C)C1CCC2C3CCC4CCCCC4(C)C3CCC12C (configuration not stated),0.984,0.961
CNCC[C@H](Oc1cccc2ccccc12)c1cccs1,0.759 and 0.596,0.799 and 0.57
COc1ccc(S(=O)(=O)Nc2nc(-c3cccc([N+](=O)[O-])c3)cs2)cc1OC,1.08,1.04
O=C(CCCN1CCC(O)(c2ccc(Br)cc2)CC1)c1ccc(F)cc1,0.788,0.75
C[C@@H](Oc1cc(-n2cnc3ccc(CN4CCN(C)CC4)cc32)sc1C(N)=O)c1ccccc1C(F)(F)F,0.284,0.335
COc1ccccc1-c1cc(Nc2cccc(CS(N)(=O)=O)c2)ncn1,0.703,1.05
CC1(COc2ccc3c(c2)ncn3-c2ccc3cccc(N4CCC(N)CC4)c3n2)COC1,0.348,0.637
CO[C@@]1(NC(=O)Cc2cccs2)C(=O)N2C(C(=O)O)=C(COC(N)=O)CS[C@@H]21,0.931,1.18
CC(=O)c1ccc2c(c1)N(CCCN1CCC(CCO)CC1)c1ccccc1S2,0.531,0.554
O=[N+]([O-])c1cccc2c(Br)[nH]nc12,0.967,1.01
CN(C)C(=O)COC(=O)Cc1ccc(OC(=O)c2ccc(NC(=N)N)cc2)cc1,1.09,1.04
COc1ccc(Cc2cnc(N)nc2N)cc1OC,0.864,0.938
O=C(O)CCC(=O)N1CCC[C@H]1C(=O)O,0.796,0.741
N=C(N)NC(=O)c1nc(Cl)c(N)nc1N,1.32,1.12
CC(C)NCC(O)c1ccc(NS(C)(=O)=O)cc1 (racemic),1.1 and 1.04,0.786 and 0.824
Nc1ccccc1NC(=O)c1ccc(CNC(=O)OCc2cccnc2)cc1,0.568,0.633
